# Experimental data reported in PMC4336329 (PLoS ONE, 2015).
# About 2,200 (0.71%) of roughly 310,000 compounds showed an effect of 50% or more. The effect is printed as a negative number. The list shows a part of the results.
# Biological target: human ether-à-go-go-related gene (hERG) potassium channel (human, UniProt Q12809)
# Assay: primary screen, population patch clamp on CHO cells stably expressing hERG
# human ether-à-go-go-related gene (hERG) potassium channel, sequence (Q12809 whole entry, looked up): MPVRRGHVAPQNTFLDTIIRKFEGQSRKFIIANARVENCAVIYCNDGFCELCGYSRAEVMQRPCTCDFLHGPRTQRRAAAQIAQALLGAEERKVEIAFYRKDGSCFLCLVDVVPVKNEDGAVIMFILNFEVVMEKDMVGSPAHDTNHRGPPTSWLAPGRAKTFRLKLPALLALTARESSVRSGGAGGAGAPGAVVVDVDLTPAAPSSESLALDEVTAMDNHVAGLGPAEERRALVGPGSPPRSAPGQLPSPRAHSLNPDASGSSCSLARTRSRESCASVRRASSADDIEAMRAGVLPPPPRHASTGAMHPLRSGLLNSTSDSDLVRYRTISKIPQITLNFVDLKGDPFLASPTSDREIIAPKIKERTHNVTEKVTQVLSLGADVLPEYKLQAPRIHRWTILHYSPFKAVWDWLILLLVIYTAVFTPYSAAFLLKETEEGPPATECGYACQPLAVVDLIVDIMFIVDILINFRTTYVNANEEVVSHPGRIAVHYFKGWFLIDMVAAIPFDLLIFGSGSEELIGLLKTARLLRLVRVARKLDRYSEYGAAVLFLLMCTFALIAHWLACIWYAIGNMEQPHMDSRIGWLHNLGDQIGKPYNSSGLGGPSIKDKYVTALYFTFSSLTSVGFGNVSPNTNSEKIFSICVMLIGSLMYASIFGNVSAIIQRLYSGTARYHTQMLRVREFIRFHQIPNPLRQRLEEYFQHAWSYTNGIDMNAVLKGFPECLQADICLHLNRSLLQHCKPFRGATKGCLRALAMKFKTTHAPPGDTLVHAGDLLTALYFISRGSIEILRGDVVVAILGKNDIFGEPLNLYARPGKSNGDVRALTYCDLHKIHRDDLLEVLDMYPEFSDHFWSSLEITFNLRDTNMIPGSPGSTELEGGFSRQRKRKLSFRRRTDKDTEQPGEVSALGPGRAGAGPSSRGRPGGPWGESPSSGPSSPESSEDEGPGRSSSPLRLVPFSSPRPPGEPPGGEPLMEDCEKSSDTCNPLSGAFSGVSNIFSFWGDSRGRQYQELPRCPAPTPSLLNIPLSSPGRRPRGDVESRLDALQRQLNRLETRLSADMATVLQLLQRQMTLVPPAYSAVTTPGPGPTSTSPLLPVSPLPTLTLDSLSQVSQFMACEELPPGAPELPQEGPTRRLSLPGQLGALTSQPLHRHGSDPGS
row,SMILES,"hERG current change (%, negative = inhibition) at 1uM"
1,Cc1ccc(N(CC(=O)NC2CCCCC2)S(=O)(=O)c2cccs2)cc1,4.9%
2,CCCCNC(=O)COC(=O)c1ccc(SC)cc1OC,22%
3,Cc1cccc(C)c1NC(=S)NCCCN1CCCC1=O,7.07%
4,CCc1nonc1NC(=O)COc1ccc(Cl)c(C)c1,15%
5,O=C1CCCN1CCNC(=S)Nc1ccccc1,0.761%
6,O=Cc1ccc(OC2OCCOC2Oc2ccc(C=O)cc2)cc1 (centres unmarked),-39.7%
7,O=C(/C=C/c1ccc(Cl)cc1Cl)Nc1ccc(CN2CCOCC2)cc1,-5.18%
8,COc1cccc(C(=O)Nc2ccc(N3CCN(C(=O)c4cccs4)CC3)cc2)c1,13.1%
9,COc1ccccc1OCC(=O)N/N=C1\CCCCc2ccccc21,2.11%
10,CCc1ccc(NC(=O)C2CCN(S(=O)(=O)c3ccc4c(c3)N(C(C)=O)CCO4)CC2)cc1,3.38%
11,CC(C)(C)NC(=O)CN(Cc1cccs1)C(=O)CCN1CCc2ccccc21,24%
12,COc1ccccc1N(Cc1ccccc1)S(=O)(=O)c1cccc(C(=O)Nc2ccc(C)cn2)c1,11.7%
13,O=C(CC1C=Cc2ccccc2N1C(=O)c1ccccc1)c1ccccc1 (centres unmarked),5.67%
14,CC(=O)Nc1ccc(S(=O)(=O)NNc2cccc(C)c2)cc1,15.2%
15,CCN(CC)S(=O)(=O)c1cccc(N=Nc2c(O)n(CC)c(=S)n(CC)c2=O)c1,3.49%
16,Cc1nc2sc(C(c3cccc(F)c3)N3CCCC(C)C3)c(O)n2n1 (centres unmarked),9.96%
17,CC(=O)NC1=NC(=O)C(C)S1 (centres unmarked),9.7%
18,Cc1cc(C)cc(OC(=O)CCN2C(=O)c3ccccc3C2=O)c1,12.5%
19,Cc1noc(C)c1C(=O)N1CCCC(C(=O)c2ccc(Cl)cc2)C1 (centres unmarked),5.61%
20,CCOc1ccccc1N(CC(=O)Nc1cccnc1)S(C)(=O)=O,19.1%
21,CCCn1c(SCc2ccc(Cl)cc2)nc2c1c(=O)[nH]c(=O)n2C,9.47%
22,O=C(NCc1ccccc1C(F)(F)F)C1CCC(=O)N(C2CCCCCC2)C1 (centres unmarked),10.2%
23,COc1cc(C2=NOC(C(=O)NCc3cccs3)C2)cc(OC)c1OC (centres unmarked),11.1%

row,SMILES,"hERG current change (%, negative = inhibition) at 1uM"
1,Cc1cc(S(=O)(=O)N2CCN(c3ccccn3)CC2)c(C)cc1Cl,6.32%
2,O=C(COC(=O)COc1ccccc1F)Nc1ccc2c(c1)OCO2,8.58%
3,CCOC(=O)C1CCN(c2cc3c(cc2NC(=O)c2ccccc2)n(C)c(=O)n3C)CC1,22%
4,COc1ccc(NC(=O)Cn2nc(C(=O)O)c3ccccc3c2=O)cc1OC,15.2%
5,CC1(C)Cc2ccccc2-c2nc3ccccc3c(=O)n21,-4%
6,Cc1cccc(-n2nnnc2SCC(=O)c2cc(C)n(CC3CCCO3)c2C)c1 (centres unmarked),-21.8%
7,COc1ccc(S(=O)(=O)N2CCCCC2)cc1NC(=O)C1COc2ccccc2O1 (centres unmarked),-10%
8,O=C(Nc1ccc(-c2nc3ncccc3o2)cc1)c1ccco1,14.2%
9,Cc1ccc(N(C(C)C(=O)N2CCC(C)CC2)S(C)(=O)=O)cc1C (centres unmarked),-1.43%
10,CCN1C=C(C(=O)OC)C(c2cccc(C)c2)C(C(=O)OC)=C1,7.98%
11,COc1ccc(Cl)cc1NS(=O)(=O)c1c(C)[nH]c(=O)[nH]c1=O,7.11%
12,CC1(c2ccccc2Cl)NC(=O)N(CC(=O)c2ccc3c(c2)OCO3)C1=O (centres unmarked),11.2%
13,N#Cc1ccccc1Cn1cc(C(=O)C2CC2)c2ccccc21,16%
14,Cc1nc2c(ccc3nc(NC(=O)c4ccc(S(=O)(=O)N(C)C)cc4)sc32)s1,16.4%
15,COS(=O)(=O)[O-].C[N+]1(C)CCC(=C(c2ccccc2)c2ccccc2)CC1,-33.9%
16,COc1ccc(N2CC(O)=C(c3n(C)c4ccccc4[n+]3C)C2=N)cc1.[Cl-],2.05%
17,O=C(c1ccc(Br)o1)N1CCN=C1SCc1cccc(F)c1,3.74%
18,Cc1ccc(S(=O)(=O)N2CCC(C(=O)N3CCCC(C(F)(F)F)C3)CC2)cc1C (centres unmarked),2.5%
19,CCOc1ccc(NC(=O)N(C2CCCCC2)C(C)c2ccncc2)cc1 (centres unmarked),8.14%
20,Cc1ccc(S(=O)(=O)N2CCOCC2)cc1C(=O)OCC(=O)NC1CCCC(C)C1C (centres unmarked),7.26%
21,CC(C)CCN(CC(=O)NC(C)(C)C)C(=O)C(=O)Nc1ccc2c(c1)OCCO2,3.27%
22,COc1cc(C2SCC(=O)N2CCc2ccc(OC)c(OC)c2)ccc1O (centres unmarked),10.1%
23,CC(C)c1ccc(/C=C/C(=O)NNC(=O)c2cccnc2)cc1,-3.93%

row,SMILES,"hERG current change (%, negative = inhibition) at 1uM"
1,O=C1NC(=S)NC(=O)C12C(c1ccccc1)NC(=S)NC2c1ccccc1 (centres unmarked),1.89%
2,COC(=O)[C@@]1(Cc2ccccc2)[C@H]2c3cc(C(=O)N4CCCC4)n(Cc4ccsc4Br)c3C[C@H]2CN1C(=O)c1ccccc1,1.67%
3,CCn1cc(C(=O)OCc2cccc(Br)c2)c(=O)c2ccc(C)nc21,1.39%
4,CCCCCCOc1ccc(/C=C/C(=O)N2CCOCC2)cc1OC,7.6%
5,CCOc1ccc(CCNC(=O)c2cc3c(s2)CS(=O)(=O)C3)cc1OCC,29%
6,O=C(NC(=S)NCc1ccc2c(c1)OCO2)c1ccccc1,7.36%
7,O=[N+]([O-])c1ccc(N/N=C2/CCCCC2c2ccccn2)c([N+](=O)[O-])c1 (centres unmarked),-9.21%
8,COc1ccc(/C=C/C(=O)N2CCOCC2)cc1OC,15.4%
9,CCOC(=O)c1cnc2c(C)c(C)ccc2c1Nc1ccc(S(=O)(=O)Nc2ncccn2)cc1,0.471%
10,Cl.OCCN(CC#CC(O)(c1ccccc1)C1CCCCC1)CCO (centres unmarked),20.1%
11,Cc1cc(OCC(=O)OCC(=O)Nc2cc(C(F)(F)F)ccc2N2CCOCC2)ccc1Cl,11.2%
12,CSCCC(=O)N1C(C)CCCC1C(=O)O (centres unmarked),15.1%
13,CCOC(=O)c1c(C)n(Cc2ccco2)c2ccc(O)cc12,5.71%
14,Cc1cccc(CC2CC(=O)N(c3ccc(C)cc3Br)C2=O)c1 (centres unmarked),16.5%
15,CN(C)c1ccc(CN(CC2CCCO2)C(=O)c2cccs2)cc1 (centres unmarked),2.93%
16,C[C@@]1([C@@H](NP(=O)(c2ccccc2)c2ccccc2)c2ccccc2)C[C@H]1CCO,15.9%
17,COCC1CCCCN1C(=O)c1cc(COc2ccc3ncccc3c2)on1 (centres unmarked),-16%
18,Cc1ccc2nc(SCC(=O)NC3CCCC3)nc(=O)n2c1,-3.54%
19,O=C(NNc1ccc(-c2csnn2)cc1)c1ccccc1C(F)(F)F,9.16%
20,O=C(CNCc1cccc2ccccc12)Nc1ccccc1[N+](=O)[O-],1.68%
21,COc1ccc(NC(=O)CN(C)C(=O)c2ccccc2OCC(=O)Nc2cccc(C(F)(F)F)c2)cc1,-10.5%
22,O=C(CSc1nc2ccccc2o1)N/N=C/c1ccccc1,1.92%
23,O=C(O)CC(=O)Nc1ccccc1,16.8%

row,SMILES,"hERG current change (%, negative = inhibition) at 1uM"
1,CCOC(=O)C1=C(C)NC(C)=C(C(=O)OCC)C1c1cc(N)ccc1OC(F)F,9.13%
2,COc1ccc(NC(=O)CCCC(=O)OCC(=O)c2cccc(OC)c2)cc1,15.9%
3,COc1ccc(CNC(=O)c2n[nH]c3ccccc23)cc1OC,6.2%
4,CNC(=O)NC(=O)Cn1cnc2sc(-c3ccccc3)cc2c1=O,8.43%
5,O=c1c2cc(F)ccc2[nH]c(=S)n1Cc1ccc(F)cc1,13.3%
6,CCN(CC)CCn1c(NCc2nc3ccccc3n2Cc2ccccc2)nc2ccccc21,-8.2%
7,COc1ccc(OC)c(-c2csc(NC(=O)c3ccc4c(c3)OCO4)n2)c1,-1.86%
8,COc1ccc2nc(Nc3ccccc3OC)sc2c1,12.2%
9,Cc1nn(CCc2n[nH]c(=S)n2C2CCCCC2)c(C)c1Br,5.89%
10,CC(C)CC(C(=O)O)N1C(=O)C2C3c4ccccc4C(c4ccccc43)[C@@H]2C1=O (some centres unmarked),13.9%
11,Oc1cc(O)cc(-c2cc3ccc(O)cc3o2)c1,19.7%
12,CCN(CC)CCCOC(=O)C(OC(C)C)(c1ccccc1)c1ccccc1.Cl,-10.6%
13,O=C(NCCC1=CCCCC1)c1cc(S(=O)(=O)N2CCCCC2)ccc1Cl,3.73%
14,COc1ccccc1Oc1coc2c(CN(C)C)c(O)ccc2c1=O,-0.221%
15,Cc1ccc(NNC(=O)c2cccs2)cc1Cl,13%
16,Cn1c(=O)n(CC(=O)Nc2cccnc2)c2ccccc21,4.4%
17,CCCn1c(SCC(=O)Nc2ccc(Cl)cc2)n[nH]c1=O,8.86%
18,NC(=O)c1cn(C2OC(CO)C(O)C2O)c2ncnc(N)c12.O (centres unmarked),5.08%
19,O=c1[nH]c(SCc2cccc(F)c2)nc2c1CCCC2,3.07%
20,Cc1ccc(NC(=O)NC(=O)c2cnccc2C(F)(F)F)c(C)c1,-5%
